# The other results are listed elsewhere or left out.
# How the values were obtained:
# Experiment in all cases: glycan array binding signal (z-score within array); higher = stronger binding
# Conditions in all cases: glycan notation: IUPAC condensed, linker removed
# [1] = target: Neu5Ac(a2-3)Gal(b1-4)GlcNAc(b1-2)[Neu5Ac(a2-3)Gal(b1-4)GlcNAc(b1-4)]Man(a1-3)[GlcNAc(b1-4)][Neu5Ac(a2-3)Gal(b1-4)GlcNAc(b1-4)Man(a1-6)]Man(b1-4)GlcNAc(b1-4)GlcNAc
# Method in brief: (§1)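 Glycan array binding is given as a within-array Z-score, which can be read as non-binding when negative. The arrays, 3228 of them, came from the Consortium for Functional Glycomics database and were retained only where the protein sequence was available. Z-scores were averaged across arrays of the same protein sequence at different concentrations or buffers and across linkers.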
# [2] = target: Neu5Ac(a2-3)Gal(b1-4)GlcNAc(b1-2)[Neu5Ac(a2-3)Gal(b1-4)GlcNAc(b1-6)]Man(a1-6)[Neu5Ac(a2-3)Gal(b1-4)GlcNAc(b1-2)Man(a1-3)]Man(b1-4)GlcNAc(b1-4)GlcNAc
# Method in brief: as §1
# [3] = target: Neu5Ac(a2-3)Gal(b1-4)GlcNAc(b1-2)[Neu5Ac(a2-3)Gal(b1-4)GlcNAc(b1-6)]Man(a1-6)[Neu5Ac(a2-3)Gal(b1-4)GlcNAc(b1-2)Man(a1-3)][GlcNAc(b1-4)]Man(b1-4)GlcNAc(b1-4)GlcNAc
# Method in brief: as §1
# [4] = target: Neu5Ac(a2-3)Gal(b1-4)GlcNAc(b1-3)Gal
# Method in brief: as §1
# [5] = target: Neu5Ac(a2-3)Gal(b1-4)GlcNAc(b1-3)Gal(b1-3)GlcNAc
# Method in brief: as §1
# [6] = target: Neu5Ac(a2-3)Gal(b1-4)GlcNAc(b1-3)Gal(b1-4)GlcNAc
# Method in brief: as §1
# [7] = target: Neu5Ac(a2-3)Gal(b1-4)GlcNAc(b1-3)Gal(b1-4)GlcNAc(b1-2)Man(a1-3)[Neu5Ac(a2-3)Gal(b1-4)GlcNAc(b1-3)Gal(b1-4)GlcNAc(b1-2)Man(a1-6)]Man(b1-4)GlcNAc(b1-4)GlcNAc
# Method in brief: as §1
# [8] = target: Neu5Ac(a2-3)Gal(b1-4)GlcNAc(b1-3)Gal(b1-4)GlcNAc(b1-3)Gal(b1-4)GlcNAc
# Method in brief: as §1
# [9] = target: Neu5Ac(a2-3)Gal(b1-4)GlcNAc(b1-3)Gal(b1-4)GlcNAc(b1-3)Gal(b1-4)GlcNAc(b1-2)Man(a1-3)[Neu5Ac(a2-3)Gal(b1-4)GlcNAc(b1-3)Gal(b1-4)GlcNAc(b1-3)Gal(b1-4)GlcNAc(b1-2)Man(a1-6)]GalNAc
# Method in brief: as §1
# [10] = target: Neu5Ac(a2-3)Gal(b1-4)GlcNAc(b1-3)Gal(b1-4)GlcNAc(b1-3)GalNAc
# Method in brief: as §1
# [11] = target: Neu5Ac(a2-3)Gal(b1-4)GlcNAc(b1-3)Gal(b1-4)GlcNAc(b1-3)[Neu5Ac(a2-3)Gal(b1-4)GlcNAc(b1-3)Gal(b1-4)GlcNAc(b1-6)]GalNAc
# Method in brief: as §1
# [12] = target: Neu5Ac(a2-3)Gal(b1-4)GlcNAc(b1-3)Gal(b1-4)GlcNAc(b1-6)[Gal(b1-3)]GalNAc
# Method in brief: as §1
# [13] = target: Neu5Ac(a2-3)Gal(b1-4)GlcNAc(b1-3)Gal(b1-4)[Fuc(a1-3)]GlcNAc
# Method in brief: as §1
# [14] = target: Neu5Ac(a2-3)Gal(b1-4)GlcNAc(b1-3)GalNAc
# Method in brief: as §1
# [15] = target: Neu5Ac(a2-3)Gal(b1-4)GlcNAc(b1-3)[Neu5Ac(a2-3)Gal(b1-4)GlcNAc(b1-6)]GalNAc
# Method in brief: as §1
# [16] = target: Neu5Ac(a2-3)Gal(b1-4)GlcNAc(b1-6)GalNAc
# Method in brief: as §1
# [17] = target: Neu5Ac(a2-3)Gal(b1-4)GlcNAc(b1-6)[Gal(b1-3)]GalNAc
# Method in brief: as §1
# [18] = target: Neu5Ac(a2-3)Gal(b1-4)GlcNAc(b1-6)[Neu5Ac(a2-3)Gal(b1-3)]GalNAc
# Method in brief: as §1
# [19] = target: Neu5Ac(a2-3)Gal(b1-4)GlcNAc6S
# Method in brief: as §1
# [20] = target: Neu5Ac(a2-3)Gal(b1-4)[Fuc(a1-3)]GlcNAc
# Method in brief: as §1
# [21] = target: Neu5Ac(a2-3)Gal(b1-4)[Fuc(a1-3)]GlcNAc(b1-2)Man
# Method in brief: as §1
# [22] = target: Neu5Ac(a2-3)Gal(b1-4)[Fuc(a1-3)]GlcNAc(b1-3)Gal
# Method in brief: as §1
# [23] = target: Neu5Ac(a2-3)Gal(b1-4)[Fuc(a1-3)]GlcNAc(b1-3)Gal(b1-4)GlcNAc
# Method in brief: as §1
# [24] = target: Neu5Ac(a2-3)Gal(b1-4)[Fuc(a1-3)]GlcNAc(b1-3)Gal(b1-4)[Fuc(a1-3)]GlcNAc(b1-3)Gal(b1-4)[Fuc(a1-3)]GlcNAc
# Method in brief: as §1
# [25] = target: Neu5Ac(a2-3)Gal(b1-4)[Fuc(a1-3)]GlcNAc(b1-3)GalNAc
# Method in brief: as §1
# [26] = target: Neu5Ac(a2-3)Gal(b1-4)[Fuc(a1-3)]GlcNAc(b1-6)[Gal(b1-3)]GalNAc
# Method in brief: as §1
# [27] = target: Neu5Ac(a2-3)Gal(b1-4)[Fuc(a1-3)]GlcNAc(b1-6)[Neu5Ac(a2-3)Gal(b1-3)]GalNAc
# Method in brief: as §1
# [28] = target: Neu5Ac(a2-3)Gal(b1-4)[Fuc(a1-3)]GlcNAc6S
# Method in brief: as §1
# [29] = target: Neu5Ac(a2-3)Gal6S(b1-4)GlcNAc
# Method in brief: as §1
# [30] = target: Neu5Ac(a2-3)Gal6S(b1-4)[Fuc(a1-3)]GlcNAc
# Method in brief: as §1
# Neu5Ac(a2-3)GalNAc = target: Neu5Ac(a2-3)GalNAc
# Method in brief: as §1
# [31] = target: Neu5Ac(a2-3)GalNAc(b1-4)GlcNAc
# Method in brief: as §1
# [32] = target: Neu5Ac(a2-3)[GalNAc(b1-4)]Gal(b1-4)Glc
# Method in brief: as §1
# [33] = target: Neu5Ac(a2-3)[GalNAc(b1-4)]Gal(b1-4)GlcNAc
# Method in brief: as §1
# [34] = target: Neu5Ac(a2-3)[GalNAc(b1-4)]Gal(b1-4)GlcNAc(b1-3)GalNAc
# Method in brief: as §1
# [35] = target: Neu5Ac(a2-3)[Neu5Ac(a2-6)]GalNAc
# Method in brief: as §1
# Neu5Ac(a2-6)Gal = target: Neu5Ac(a2-6)Gal
# Method in brief: as §1
binder,measurement,setting,value
Si Bti9 1b-HA (Solanum lycopersicum) (protein) MFESRPRSVLSLGVFVILVYLSSVPLPVNSQCNRGCDLALASFYVWRGSNLTLISEMFSTSIADIVSYNNRDNIPNQDSVIAGTRINIPFRCDCLNDGEVLGHAFPYRVKSGDTYDLVARNYSDLTTAQWMMKFNSYPENNIPNTVNLSVVVNCSCGNSDVSKDFGLFVTYPVRAEDNLTSVASAANVSEDIIRRYNPAAVSILDIGQGIIYIPGRDRNGNFPPLPTSTDGLSGGAKAPLFFNPAFLYKVVELKLAGRSRTSGYPYDVPDYAGYPYDVPDYALEVLFQ,glycan array binding signal (z-score),[1],-0.546
same,glycan array binding signal (z-score),[2],0.923
same,glycan array binding signal (z-score),[3],-0.676
same,glycan array binding signal (z-score),[4],-0.167
same,glycan array binding signal (z-score),[5],-0.364
same,glycan array binding signal (z-score),[6],-0.486
same,glycan array binding signal (z-score),[7],0.285
same,glycan array binding signal (z-score),[8],-0.576
same,glycan array binding signal (z-score),[9],1.35
same,glycan array binding signal (z-score),[10],-0.222
same,glycan array binding signal (z-score),[11],-0.139
same,glycan array binding signal (z-score),[12],0.187
same,glycan array binding signal (z-score),[13],0.251
same,glycan array binding signal (z-score),[14],-0.144
same,glycan array binding signal (z-score),[15],-0.367
same,glycan array binding signal (z-score),[16],-0.422
same,glycan array binding signal (z-score),[17],-0.486
same,glycan array binding signal (z-score),[18],-0.297
same,glycan array binding signal (z-score),[19],-0.072
same,glycan array binding signal (z-score),[20],-0.22
same,glycan array binding signal (z-score),[21],-0.414
same,glycan array binding signal (z-score),[22],-0.151
same,glycan array binding signal (z-score),[23],-0.417
same,glycan array binding signal (z-score),[24],-0.379
same,glycan array binding signal (z-score),[25],-0.068
same,glycan array binding signal (z-score),[26],0.154
same,glycan array binding signal (z-score),[27],-0.029
same,glycan array binding signal (z-score),[28],-0.438
same,glycan array binding signal (z-score),[29],-0.008
same,glycan array binding signal (z-score),[30],-0.38
same,glycan array binding signal (z-score),Neu5Ac(a2-3)GalNAc,-0.396
same,glycan array binding signal (z-score),[31],-0.226
same,glycan array binding signal (z-score),[32],-0.316
same,glycan array binding signal (z-score),[33],-0.124
same,glycan array binding signal (z-score),[34],-0.233
same,glycan array binding signal (z-score),[35],0.12
same,glycan array binding signal (z-score),Neu5Ac(a2-6)Gal,-0.348
